{
  "source": "ChEMBL document CHEMBL4888484",
  "about": "“Replenishing the malaria drug discovery pipeline: Screening and hit evaluation of the MMV Hit Generation Library 1 (HGL1) against asexual blood stage Plasmodium falciparum ,using a nano luciferase reporter read-out” (2022)",
  "note": "The campaign covered roughly 150,000 compounds. About 540 (0.36%) showed an effect of 50% or more. This is one part of the list.",
  "data": [
    {"test_system": "Plasmodium falciparum", "assay": "Primary screen in NF54 nanoGlo assay, in single point, at 2uM, 72h; a lower Z score goes with more inhibition", "format": "functional, Erythrocyte", "details": "timepoint 72 hour", "units": {"% Inhibition": "%"}, "values": [
      {"smiles": "CCN(C(=O)CCc1c[nH]c2ccccc12)C1CCOCC1", "% Inhibition": -10, "Z score": 1.26},
      {"smiles": "C[C@@H](c1nncn1C)n1cc(-c2cccc(S(C)(=O)=O)c2)nn1", "% Inhibition": 3, "Z score": -0.31},
      {"smiles": "Cn1nncc1S(=O)(=O)N(CCC#N)CC1CC1", "% Inhibition": -5, "Z score": 1.03},
      {"smiles": "c1cc2cn[nH]c2cc1CNC[C@H]1CN(C2CC2)CCO1", "% Inhibition": -7, "Z score": 0.94},
      {"smiles": "COc1cc(-c2cnnc(NCc3cc(C)no3)n2)cc(OC)c1OC", "% Inhibition": 14, "Z score": -1.85},
      {"smiles": "Cc1ccc(Cn2ccc(NC(=O)c3cc4nc(-c5ccco5)cc(C(F)(F)F)n4n3)n2)cc1", "% Inhibition": -8, "Z score": 0.83},
      {"smiles": "Cc1ccc(-c2cn[nH]c2[C@H]2CCCN(C(=O)CCn3cccn3)C2)cc1", "% Inhibition": -5, "Z score": 0.94},
      {"smiles": "O=C(Nc1cn[nH]c1)Nc1nc(-c2ccccc2Cl)ns1", "% Inhibition": 1, "Z score": -0.09},
      {"smiles": "Cc1ccc(N2CC[C@H]3[C@H](CCC(=O)N3CCc3ccccc3)C2)nn1", "% Inhibition": -6, "Z score": 1.13},
      {"smiles": "Cn1ncc(Br)c1S(=O)(=O)Nc1cc(C(F)(F)F)ccn1", "% Inhibition": -32, "Z score": 3.73},
      {"smiles": "Cc1ccc(S(=O)(=O)NC[C@H]2O[C@@H](CC(=O)NCc3ccc(F)cc3)[C@H](O)[C@@H]2O)cc1", "% Inhibition": 5, "Z score": -0.74},
      {"smiles": "O=C1Cc2cc(Nc3nccc(C(F)(F)F)n3)ccc2N1", "% Inhibition": -21, "Z score": 2.57},
      {"smiles": "COCC1CN(C(=O)C(C)NC(=O)CC2CCCCC2)CC(C)O1", "note": "(stereo unspecified)", "% Inhibition": 3, "Z score": -0.74},
      {"smiles": "C[C@@](CO)(Cn1cnc2ccccc21)NS(=O)(=O)C1CC1", "% Inhibition": -1, "Z score": 0.15},
      {"smiles": "COc1ccc(-c2cn3ccn(-c4ccc(Cl)cc4)c(=O)c3n2)cc1OC", "% Inhibition": -6, "Z score": 0.84},
      {"smiles": "COC[C@H]1CCCN1C[C@@H]1OC[C@H](NC(=O)c2ccc(C#N)cc2)[C@H]1O", "% Inhibition": 9, "Z score": -1.07},
      {"smiles": "O=C(c1ccc(Cl)s1)N1C[C@H]2CC[C@@H](C1)N(Cc1ccccn1)C2=O", "% Inhibition": -6, "Z score": 1.05},
      {"smiles": "CCN(CC)[C@@H](CNc1ncncn1)c1ccco1", "% Inhibition": 6, "Z score": -1.13},
      {"smiles": "Cc1cc2n(n1)CCCN2C(=O)Nc1ccc(F)c(Cl)c1", "% Inhibition": 4, "Z score": -0.66},
      {"smiles": "COc1nc(C)c(Br)cc1-c1noc(Cc2cnccc2C)n1", "% Inhibition": 3, "Z score": -0.28},
      {"smiles": "Cc1cc(N2CCNC(=O)[C@@H]2C(C)C)nc(C2CC2)n1", "% Inhibition": 3, "Z score": -0.49},
      {"smiles": "O=C1C2C3CCC(C3)C2C(=O)N1C1CCN(Cc2ccccc2)CC1", "note": "(stereo unspecified)", "% Inhibition": -11, "Z score": 1.21},
      {"smiles": "CC1(C)NC(=O)CC[C@@H]1NS(=O)(=O)c1ccc(OCC(F)F)cc1", "% Inhibition": -5, "Z score": 0.7},
      {"smiles": "C=Cc1ccc(S(=O)(=O)N2CCC[C@H](N3CCCS3(=O)=O)C2)cc1", "% Inhibition": 2, "Z score": -0.2},
      {"smiles": "Cc1c(C(=O)N2CCCC[C@@H]2COC(=O)N2CCOCC2)sc2nccn12", "% Inhibition": -48, "Z score": 5.63},
      {"smiles": "O=C(NC(c1ccccc1)c1ccccc1)[C@@H]1CCCN1S(=O)(=O)c1ccc2c(c1)OCCO2", "% Inhibition": -12, "Z score": 2.12},
      {"smiles": "CCCC[C@@H](COC)NC(=O)Cc1ccccc1O", "% Inhibition": -5, "Z score": 0.67},
      {"smiles": "CN(C)[C@@H](CNC(=O)NCc1cccs1)c1csc2ccccc12", "% Inhibition": -7, "Z score": 0.75},
      {"smiles": "Cn1cnc(C(=O)N2CC3CCC3(Nc3nc(C4CCCCC4)ns3)C2)c1", "note": "(stereo unspecified)", "% Inhibition": -18, "Z score": 1.97},
      {"smiles": "CN(Cc1csc(-c2ccccc2)n1)C(=O)COC[C@H]1CCCO1", "% Inhibition": -4, "Z score": 0.72},
      {"smiles": "O=C(N[C@@H]1CN(Cc2cc(F)ccc2F)C[C@H]1CO)c1cccnc1", "% Inhibition": -10, "Z score": 1.78},
      {"smiles": "C[C@@H](CS(=O)(=O)Nc1ccn(CC(F)F)n1)c1ccccc1", "% Inhibition": -7, "Z score": 0.8},
      {"smiles": "COc1cccc(CNC(=O)C2=Nc3ccccc3S(=O)(=O)N2)c1", "% Inhibition": -14, "Z score": 1.58},
      {"smiles": "CN1CCN(c2nc(-c3ccc(F)cc3)c3c(N)n(-c4ccccc4)nc3n2)CC1", "% Inhibition": -18, "Z score": 1.91},
      {"smiles": "CCOC[C@H]1CCCN1C(=O)c1cnc2ccccn2c1=O", "% Inhibition": -2, "Z score": 0.35},
      {"smiles": "Cc1ccc(C(=O)Nc2ccc(N[C@@H](C)c3ccccc3)c(Cl)c2)cn1", "% Inhibition": -7, "Z score": 0.67},
      {"smiles": "O=C(CCCc1ccccc1)Nc1ccc(-c2cn3ccccc3n2)cc1", "% Inhibition": -8, "Z score": 1.52},
      {"smiles": "O=C(CC1(O)CCCC1)N[C@H]1CCN(c2ncc[nH]c2=O)C1", "% Inhibition": -9, "Z score": 1.19},
      {"smiles": "CCC[N+]1(CC#C[C@@](O)(c2ccccc2)C(C)(CC)CC)CCCCC1", "% Inhibition": 54, "Z score": -8.65},
      {"smiles": "CN(Cc1ccccc1)CC(C)(C)NC(=O)NCc1nccn1C", "% Inhibition": -4, "Z score": 0.52},
      {"smiles": "Nc1ccc(S(=O)(=O)N2CC3(CCOCC3)[C@@H]2C2CC2)cc1", "% Inhibition": -8, "Z score": 0.79},
      {"smiles": "CC(C)(C)C(=O)NCCNc1ccc(F)cn1", "% Inhibition": -10, "Z score": 1.15},
      {"smiles": "Cc1nc(CNCc2cccnc2N2CCN(C)CC2)cs1", "% Inhibition": -6, "Z score": 0.88},
      {"smiles": "CC(C)Cc1ccc(CN2C[C@@H]3CC[C@H]2CN(Cc2ccccn2)C3)s1", "% Inhibition": 4, "Z score": -0.77},
      {"smiles": "COC(=O)c1cn(CCc2c[nH]c3ccccc23)cc(C(=O)OC)c1=O", "% Inhibition": 31, "Z score": -1.14},
      {"smiles": "O[C@H]1CCCC[C@@H]1n1cnc(-c2ccccc2)c1-c1cccc2ncccc12", "% Inhibition": 0, "Z score": 0.05},
      {"smiles": "CCC[N+](CC#CCO)(CC#Cc1ccccc1)CCC", "% Inhibition": -12, "Z score": 1.05},
      {"smiles": "O=C1CCC[C@H]2[C@@H]3C[C@H](CN(c4ccncc4F)C3)CN12", "% Inhibition": -1, "Z score": 0.11},
      {"smiles": "CN(C)S(=O)(=O)N1CCCN(C(=O)CC(C2CCC2)C2CCC2)CC1", "% Inhibition": 0, "Z score": -0.04},
      {"smiles": "COCC[C@]1(NS(=O)(=O)c2ccccc2)CCN(S(=O)(=O)C2CC2)C1", "% Inhibition": -4, "Z score": 0.54},
      {"smiles": "O=C(NC1(c2nccs2)CCCC1)[C@@H]1CCN(c2ccc(F)cc2)C1=O", "% Inhibition": 6, "Z score": -0.9},
      {"smiles": "CCCN1CCC[C@H]1CNC(=O)C1(C)CCc2ccccc21", "note": "(stereo partly specified)", "% Inhibition": -6, "Z score": 0.7},
      {"smiles": "Cc1nn(C(C)(C)C)cc1C(=O)N(C)CCc1nccs1", "% Inhibition": -14, "Z score": 1.41}
    ]}
  ]
}
